# The other results are listed elsewhere or left out. At the low end of the ranking, values are background and their order means little. The protein was read in a cell extract, so binding may be indirect.
# Biological target: T1, HNF4alpha2 (COS-7 nuclear extract) (UniProt P41235)
# T1 sequence: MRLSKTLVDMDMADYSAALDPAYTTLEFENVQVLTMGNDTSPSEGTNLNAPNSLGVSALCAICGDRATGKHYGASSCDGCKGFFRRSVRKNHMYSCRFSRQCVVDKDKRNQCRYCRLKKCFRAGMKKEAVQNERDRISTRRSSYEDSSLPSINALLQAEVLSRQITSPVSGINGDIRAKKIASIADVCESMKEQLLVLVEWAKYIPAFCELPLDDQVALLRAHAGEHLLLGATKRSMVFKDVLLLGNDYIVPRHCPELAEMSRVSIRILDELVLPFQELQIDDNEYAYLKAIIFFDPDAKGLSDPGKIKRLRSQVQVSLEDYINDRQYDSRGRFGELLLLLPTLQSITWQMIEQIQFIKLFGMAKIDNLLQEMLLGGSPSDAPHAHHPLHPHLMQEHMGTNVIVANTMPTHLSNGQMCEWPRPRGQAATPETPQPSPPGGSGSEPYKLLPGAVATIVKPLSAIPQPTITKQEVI
# Assay: protein-binding microarray
# Conditions: COS-7 nuclear extract on double-stranded Agilent 4x180k PBM; binding buffer, salt, pH and temperature not given; high values mean tight binding; double strand, one strand shown; sequences stand for … in …GCCTAGGGAGATTAGAGTATCGGTCGA
row,Sequence,binding signal (log2 normalized intensity)
1,CACAGCTAAGAGCCGCAGAGCTAATGTTCA,-1.07
2,GAGAGTATGGGATGATCAGTAAGGAGAGGG,-1.1
3,AAGCAAGCCCTATTAGGCATTTCATTTGCC,-1.11
4,AGAAAATGTGCCCTTTGGACAGAAATATCA,4.29
5,CAGCTGGGCTTGTTCAAATAACAGCAACAT,-1.07
6,GATGTAATAGGGTGACAGTATCAAAGTCCC,2.41
7,GGAGCAAAGGTTGGGGGTGGGGAGGAAGCA,-1.08
8,CAACTCAGAGACAGGGATTGGTTCTCAACA,-1.07
9,TCCAAAATACGACCTTTGGACAGGGTGACG,6.8
10,GCATTATCAGGCAAGGGTGGTGACAAAGAC,0.479
11,GGCTGATGTCTTTCTGGCTGGAGAGGAGGT,0.687
12,ACTGGTTTCTTGTCTGCCCCAGGGCTTTGC,1.78
13,TCTCTTATAGGTGTTTATAAAGTTGGGAAA,1.74
14,CTGGGTGGGGATAAGAAAAGATCAAGGGCA,-0.893
15,GCAACTACAAGGAGCAGCCTAGTAAAAGGT,-1.1
16,TTGGGCCAGTCGCTTAACCTCTTGATCCTG,1.34
17,GTTCATTTGCACTTGTTTTTTCAGGTGTTG,2.38
18,TTAAGATTTGACCCTTGGCCAGGTGCAGTG,4.65
19,GCCTCCCTCCTTCCGCGGACGTGTTCCCAC,2.05
20,GCCCAGATAAGAACTGCAAGGCTAGAGATT,-1.18
21,CTGAGACAACACTCAGGATACCTAAGCCCC,0.598
22,CTTTGGCTCCAGAGTCCACATTCTTAAACG,2.12
23,GGAGGAGGTCAAAGTGCAACTACAAGGAGC,4.65
24,TCCATCTAGCAGCCCCAACCCACTGTTGCC,2.93
25,GAGGAGCTAACAGTAAAACTGAGATCTAAG,-1.03

row,Sequence,binding signal (log2 normalized intensity)
1,TGGGCCCACAGATGATCAAAGGTCAGTCTT,6.53
2,GGGCAGGTGGAGGTGGGATACTGGGAGGGA,-1.1
3,TTGGTTGGAGAAAGCAGCCAACCAGAGGCT,-1.01
4,GTCACCAAAGCAAGCAGATGATATGTGATG,-0.764
5,TTCAAAGGTTATCTGCTGGCAGAATTCCTT,-1.08
6,TGTTGATAAAGTGATTAGTGCAAGAATCCA,-0.902
7,GAGTCCAAACTGGGACCTGTGACACTCTGC,-0.119
8,AGATCCTCTAAATTCCAGGGCTGGGTCCAG,2.23
9,TGGAAAAACCACACACTCCATAACTTTGGG,-1.08
10,ATTTCCAAGACCTCTTTGCGGATAGATATG,0.223
11,TACTCTAGTACTAGGCAGCATAGGGCCACT,-1.06
12,GGGGCTGCCGGGAAAGGCATACGTGCTTAA,-1.18
13,TCAGGACTCTAACTGGCTTTAAGAGGAATG,-0.943
14,CCCTTGGCCCCGCTGTCCTGATCCCTGAGG,1.3
15,TTATCAGGTCTTTCTTTCAGAACAGAGCCC,1.32
16,CTAGCCGCTCCTCCCACGTCGCTGCCGCAG,-1.18
17,GGTTGGCGCCAATACCTGCCGCGCGGGGCG,-1.14
18,GACTCATTATCCCCCGCAACTATTTATGAG,2.91
19,AAAAAGCTTTTGTCATGACCTTCGCTCTTG,5.5
20,GATATTCAGACCTCTTTGAGGCCTTCGTTG,-1.19
21,CCATCTCGTCCCGTCAATCTGCAGCCGCCG,-1.23
22,TATTTGCTCACCAGTGACCAATAATGTAAT,0.767
23,CTCTCCAAGCCAGAAAGATGTTTGCCCCAA,2.98
24,AATCCATTGTCAATACCCTGTTATTAGTCC,0.805
25,CTCCCACCTTCGAGCTTCACCTTTGTCCTC,5.27

row,Sequence,binding signal (log2 normalized intensity)
1,GAATGTTGAACCTTTCTTTGTCTTTGCAAT,2.02
2,GAGATGGAATCTTGCCCTGTCGCCCAGGCT,-0.996
3,AGATTCGGTGAGGGATTGTTTAGGTACAAA,1.53
4,CCCACCTATGTCCTTATCCTCATTGTGTGC,2.45
5,ATTTTTATGTGGCATTTCAAAGGAGGAGGC,-0.651
6,AGAATAAACGCTGAAGTCTCAAAGTTCACC,3.52
7,ATGTACATGTGCAAAAGCACCCAAGGCTCT,-0.928
8,AGAAATAGCATCACGAAAGGCAACATCTTG,-1.12
9,TCCGGCTGGCCTTCCCTCCTCCCTCCGTCT,1.98
10,CTGAAGTCTCAAAGTTCACCACTTTTGCAA,2.61
11,TCGCGAGAGAACTGAAAAAGGGGACCGGCC,-1.06
12,TATTTGGAACCAAGAGCAGATTTGTTTGCT,-1.12
13,AGTGGTTTCAAGGTGACCCCACGGAGCTGC,2.52
14,CATTCAAAGCCTAGGCTCCAGGGCACTGCC,-1.32
15,GGGAAGCAGTGAGGGTGGGTTCAAAGGTCA,8.24
16,GAAATTCTGGCCAACCAGCACTTCTGGAGG,-1.17
17,AGCATGCGGTAAAGAAGCCAGCCAAATCCC,-1.03
18,TAAGGTTCCAGCAAAGAGATTAGGACACAG,-1.22
19,TTCCCCCTCCCTGGACTCCTGGGACTTATT,3.36
20,CTTCTCATACTACTGTACTTTGCTCTCAGC,4.45
21,ACCAGGATAGGGAGGGGTAAGGGTGGGGGT,-1.05
22,ATTAGAACAAACGACGCTCCTATCATCCCT,-1.11
23,ACATCACCTACCTGACTCCTTAGGGATTTG,-1.23
24,GGACAGGTGCGACGAACGGGTAAATCCGGT,-1.19
25,TAATCAACTGCAGGAGTCGGGAGGTAGGGG,-1.14

row,Sequence,binding signal (log2 normalized intensity)
1,ACCAGACAGCACCTCTCTGATGCCATGATA,-1.24
2,TATATGAGTGTATAGTGGCACTGTTATGAC,1.76
3,AGACTTTGCACCAAGGAGACACCCCTGCAG,1.03
4,GTTCTTGCTACCTACTCATTCATATCACCT,0.369
5,TGGGCCAAAGGTCATACCTGTCTAGGTGGA,4.07
6,GGGCATTAGGTGGACAGGGGTGTGTTGACC,2.93
7,TCAGAGGCCTGAAGGCCCCCAGGTAGCTGC,1.81
8,CCTGTCTGACAGGATGAATTTATTGCCCTC,2.87
9,CCCCAAATCCCCTTCAAGTCTGAGATGAAG,1.96
10,TGGTCCCAGGGGAGGTTATCTTGGGGCTAA,-1.07
11,ATAATAAATAAGGGAGGTAAAAGTCCAACA,2.47
12,TCTGACTCGGGTGTTCACAGGTGACCTCTG,4.72
13,GTAAACATTTGCCTTTAGGGCCCCCTGTGA,2.28
14,TAAGGTGTTGAAAAGAGCATAAGGTTTCCA,-1.02
15,TGGCCTTGCTTTTCACAGTCGATCTTTGAC,2.3
16,TCCTTTCCTCCTATGTCAATAGAGCATGAG,0.00627
17,TCTTTTCTAAGACATAACACAGGTGACCTT,4.03
18,GTCAATAGTTGTGTAAATAGCTCAGGGACT,-1.12
19,GTCCACACATTCCTAGACCTTTGACCTTTA,8.13
20,AAGCAAACAAAACACGGACTTTGAAGCTCC,1.95
21,AGGTCAAAATATCTGATCGATATCCTAACC,-0.858
22,AATCTGCATCCCCAAGCTGTTATTCCAGGC,1.83
23,TGCTGGTCAGGAGACTGCTCGGCATCCCTG,-1.14
24,AGAGGTCGTGTCTCCATTCAGCATTGCTTG,-0.703
25,GGGGGGAGACAACTGCAACAGGAGGACCTC,-1.12

row,Sequence,binding signal (log2 normalized intensity)
1,GAATGAAACGGATGCAAAGGCTGAGCCCTT,-1.13
2,GACACCAGGGAACACACCATGTACAGAGAG,-1.19
3,AGGTGTTTCAGATGGACCAAAGGTCTTGTA,2.83
4,ATCATTGTGCAACCTGGACATTGGCTGATA,1.74
5,GACCTGTCTTCCTGGTGACCTTTGTTTGGT,4.94
6,AACAAGTAAAATGAGCAAACAGAACTGTTA,-1.17
7,AGGAATGTTCATTCATTCACCTTTCGCCCT,2.95
8,CACTGATAAGTCTGCTTGCCATTAATGAAA,-1.07
9,CAGCGCTTTGGTAGGCTGTATGGCTGCACA,-1.27
10,CTAAATTAGATATGGCTTATACTTGAGGTA,-1.08
11,AAGCTTGGTATGCTTAAGTGGCTCACCCAA,-1.07
12,ACCCAAATCAAAGTAACAAGAGGCAAAGGC,-0.983
13,CCCGAGTGAGGCAATGCCTCGCCCTGCTTC,-1.18
14,TGGGAGATATATGAGGGGTGTAAACCTGGT,-0.0995
15,ACCCCCATTCTTCCTGGTATCAGAGTGGAG,1.36
16,GGAGATGAGTGGGTTCACTTTGAGCAAGAT,0.683
17,GGCGCTTATCTGAGCACACACTCACGGACC,-1.21
18,TGAAGCTCTCTTTGTGAAATGGGACCCAAC,1.14
19,AGCCTCATCTGAGATAAGGCAAGTCCCTTC,-1.11
20,AAACTATGCATGCTGTGTGTGTGTGTGTGT,3.31
21,AGATAAGATAGCACCAGCCCATTAATCAAG,-1.16
22,TTTTGTTTAGGAAGAGATCAAAGTTCTGTT,2.91
23,GACATCTGGAAATGTTTGTAGGGACTTTGA,4.28
24,CCTGCCGGCGGCGCAGACGGCGGATCCTCC,-1.11
25,TAACTCCTTTGTGTGAATCGACCTTTAGCA,5.44

row,Sequence,binding signal (log2 normalized intensity)
1,CTTCCAGTATCTTAGCCAAAGAGAAGCCTA,-1.11
2,TACGTTTCTTTCATGTCATAGTAAATCCAC,0.896
3,ACAGATAAACCCCTGGAGCACAGAAGGAGG,-1.14
4,CTTCCTGAATGCCTAGGTGACAAGGAAAAC,-0.974
5,TGGACATTGGCCCTTTGACCTTTAATCAAG,6.47
6,ATCTACCCTTGACAATTCCTATTCATTCCC,-0.0843
7,CCACCGTGGTGTAGAGGCCCTGCAGGGCCC,-1.23
8,AGAGGAGGGGGCAGGAGCCCAAGAAGCGTC,-1.15
9,CTTTCCTAGACGTAAGACAACATCTGGTGT,0.801
10,TCCCTATGTTGTCCCTGCCCTTTGTCCAGG,3.89
11,AGGTACTGGTAGCCTGGGCCCCAGGGGACG,-0.222
12,AAATCCAAAGGGCATCAGCCCCAATGGCTA,-1.11
13,GTGAGATGGCTCAGCCTGGCTGTGTAGACA,-1.01
14,GAGATAACTGGGGGCATAGCCCATGCAAAT,-1.16
15,CGGGAGGGAGAGAAGGACATCTATCATTTT,-0.616
16,AATGGATCCACTCAGTATGGCAACCTTTGT,3.54
17,CAAGGGCAACTCTAATAGCACAGATCACAT,-0.966
18,GAGCTCCTTGTGAGCAGGATTATAGTTTAT,0.466
19,ACAGTTAGAAGTACTAGATTTGGAACTCAG,-0.99
20,CTTGGCACTTAGCACAAGTGACTATTCTGG,0.959

# From paper PMC10726135
